This passage reports TGI and GI50 results from PubChem BioAssay (NCI).

Several values for one entry are separate records, joined by “and”; a condition that tells them apart may be missing. Equal values may be shown once.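 Five compound concentrations were applied to cells in 96-well plates for 48 hours; endpoints were derived by simple linear interpolation of the resulting dose-response curve. Here, GI50 denotes the concentration required for 50% inhibition of growth. The concentration for full growth arrest is given as TGI.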 A value given as a limit tells only on which side of the number the result lay.

For this assay, the system named is NCI-H322M lung. Nature of the assay: NCI tumour cell line growth inhibition, 48 h.
In the case of `Cc1cc(C)n(CN(Cn2nc(C)cc2C)c2ccccc2)n1`, the TGI is over 100 µM.

On to `COc1ccc2c(c1)C(N)=C(Cc1ccncc1)C2=O`, for which the TGI was over 100 µM.

For the compound `COc1ccc(CNC(=O)[C@H](Cc2ccc(O)cn2)NC(C)=O)cc1`, the TGI was over 100 µM.

Consider `NC(=Nc1nc(-c2ccccn2)cc2ccccc12)c1ccccn1`, for which the GI50 was 0.0356 µM.

For `Cc1cc2c(cc1C)C(=O)/C(=N/Nc1ccc(F)cc1)CCO2`, the TGI is over 100 µM.

`CC1OC(O[C@H]2CC[C@]3(C=O)[C@H]4CC[C@]5(C)[C@H](C6=CC(=O)OC6)CC[C@]5(O)[C@@H]4C=C[C@]3(O)C2)CC(O)C1O` (stereo partly drawn) came in with a TGI of 1.7 µM.

For `C/C=C(/C)C(=O)OC1C=C(CO)C(=O)C(OC(=O)C(C)(O)C(C)Cl)C1C(C)C` (stereo not drawn), the GI50 was 1.64 µM and the TGI stood at 3.02 µM.

For `COc1ccc2c(c1)N(CCO)C1=C(C(=O)OC1)C2c1ccccc1` (stereo not drawn), the GI50 was 2.33 µM and the TGI was over 50 µM.

For the compound `O=S(=O)(OI(O)CC(F)(F)F)C(F)(F)F`, the TGI is over 100 µM.

`CCC[CH2][Sn]([CH2]CCC)([O]C(=O)c1cc(F)cc(F)c1)[O][Sn]([CH2]CCC)([CH2]CCC)[O]C(=O)c1cc(F)cc(F)c1`: the GI50 was 2.24 µM and the TGI stood at 5.47 µM.

`O=C(Nc1nc(C23CC4CC(CC(C4)C2)C3)cs1)c1cc2c(ccc3ccccc32)oc1=O` registered a TGI of over 100 µM.

As for `COc1ccc(/C=C2\CC(C)CC3C2=NN(c2ccccc2)C3c2ccc(OC)c(OC)c2)cc1OC` (stereo not drawn), the GI50 is 4.48 µM and the TGI is over 100 µM.

`COc1cc(CC(C(=O)O)C(=O)O)c(OC)cc1CC(C(=O)O)C(=O)O`: the TGI is over 100 µM.

Compound `COC(=O)c1cc(C)n(CN(Cc2ccccc2)Cn2nc(C(=O)OC)cc2C)n1` yielded a TGI of over 100 µM.

Compound `CCOC(=O)NC(=O)c1cn(CCN2CCNCC2)c(=O)[nH]c1=O` returned a TGI of over 100 µM.

`NC(N)=NC(N)=Nc1ccccc1` (tested in a mixture with another compound) registered a TGI of over 100 µM.

On to `O=C(CCOS(=O)(=O)CF)N1CCN(C(=O)CCOS(=O)(=O)CF)CC1`, for which the TGI was over 100 µM.

With `CN(C)CCCNC(=O)c1cc(NC(=O)c2cc(NC(=O)[C@@H]3C[C@H]3C(=O)Nc3cc(C(=O)Nc4cc(C(=O)NCCCN(C)C)n(C)c4)n(C)c3)cn2C)cn1C`, the TGI was over 100 µM.

On to `Cc1ccc(C2CC(c3cccc(Nc4ccncc4)c3)=NN2c2ccccc2)cc1` (stereo not drawn), for which the GI50 is 1.67 µM and the TGI turned out to be 3.05 µM.

In turn, `O=C(O)CCSC(=O)Nc1ccccc1Cl` yielded a TGI of over 100 µM.

Turning to `O=C1C(Cl)C(c2cc3cc(Br)ccc3nc2Cl)N1c1c(Cl)cccc1Cl` (stereo not drawn), the TGI was over 25 µM.

Regarding `C=C1CCC2C3(C)COC(c4ccc(Cl)cc4)OC3CCC2(C)C1/C=C/C1=CCOC1=O` (stereo not drawn), the GI50 is 28.7 µM and the TGI is over 100 µM.

Consider `COc1cc2ncn(-c3cc(OCc4ccccc4C(F)(F)F)c(C(C)=O)s3)c2cc1OC`, for which the GI50 was over 25 µM and the TGI was over 25 µM.

Turning to `OC1CCC[C@@H]1Sc1ccccc1` (stereo partly drawn), the TGI was over 100 µM.

In the case of `CC1=C2[C@H](c3ccccc3)C3C=CC2(c2ccccc23)N(C(=O)C(c2ccccc2)c2ccccc2)C1=O` (stereo partly drawn), the TGI was over 100 µM.

Compound `CC(=O)Nc1ccc2cc3[nH]c4cc(NC(C)=O)ccc4c3nc2c1` came in with a TGI of over 100 µM.

With `CC(C)CCC(=O)[C@@H](C)[C@H]1[C@@H](OC2OCC(O)C(O)C2NS(C)(=O)=O)C[C@H]2[C@@H]3CC=C4C[C@@H](O)CC[C@]4(C)[C@H]3CC[C@]12C` (stereo partly drawn), the GI50 is 4.22 µM and the TGI was determined as 14.8 µM.

`[O-][n+]1c(-c2ccccc2)c2nc3ccccc3nc2c2ccccc21` yielded a TGI of over 100 µM.

Turning to `NC(=S)NS(=O)(=O)c1ccc(F)cc1F`, the TGI was over 100 µM.

Take `Cn1c(-c2ccc(N=NNc3ccc(-c4n[nH]c(=S)n4C)cc3)cc2)n[nH]c1=S`: the TGI was over 100 µM.

Consider `C=CCc1cccc(/C=N\N=C(/N)NO)c1O`, for which the TGI is over 100 µM.

Regarding `O=C(NN1C(=O)CSC12CCCC2)C(O)c1ccccc1` (stereo not drawn), the GI50 is over 100 µM and the TGI was over 100 µM.

On to `O=C(NNC(=S)Nc1ccccc1)c1ccccn1`, for which the GI50 was 2.02 µM and the TGI is over 100 µM.

Consider `COC1(CC[C@H](C)COC2OC(CO)C(O)C(O)C2O)O[C@H]2C[C@H]3[C@@H]4CC=C5C[C@@H](OC6OC(CO)C(O)C(OC7OC(CO)C(O)C(O)C7O)C6OC6OC(C)C(O)C(O)C6O)CC[C@]5(C)[C@H]4CC[C@]3(C)[C@H]2[C@@H]1C` (stereo partly drawn), for which the TGI turned out to be 9.95 µM.

For `COc1ccc(/C=C\c2cc(OC)c(OC)c(OC)c2)c(O)c1O`, the GI50 is 0.231 µM; the TGI was 42.7 µM and 32.7 µM.

In the case of `C[C@]12CC[C@@H]3c4ccc(OCCN5CCCC5)cc4CC[C@H]3[C@@H]1CCC2=O`, the TGI is over 100 µM.

With `CC(=O)O/N=C(Cl)/C(Cl)=N/OC(C)=O`, the TGI is over 100 µM.

For `Cc1ccc(C)n1-n1c(-c2ccccc2)n[nH]c1=O`, the TGI is over 100 µM.

For the compound `O=[As](O)(O)c1ccc2nc3cc([As](=O)(O)O)ccc3nc2c1`, the TGI is over 100 µM.

For the compound `O=C(Nc1cccc(Cl)c1)c1cc(N=Nc2ccc([N+](=O)[O-])cc2Cl)ccc1O`, the GI50 is 2.78 µM and the TGI is 8.63 µM.

`CC1=NN(C(=O)c2ccncc2)C(=O)C1N=Nc1ccc2ccccc2c1` (stereo not drawn) gave a TGI of over 100 µM.

On to `CCCCCCCCCCCCCCCC(=O)OC1C(O)C(CO)OC(OC)C1NC(=O)N(CCCl)N=O` (stereo not drawn), for which the TGI was found to be 29.6 µM.

`C=C1C(=O)OC2C1C(OC(=O)/C(C)=C\C)CC1(CO1)C1C(O)C=C(C)C21O` (stereo not drawn) yielded a TGI of 40.8 µM.

Regarding `CC1CCc2c(c(CC3CC(=O)NC(=O)C3)nn2-c2ccccc2)C1` (stereo not drawn), the TGI is over 100 µM.

`CCCCCCCCCCCCCC(=O)OCC1OC(n2cc(F)c(=O)[nH]c2=O)C(N)C(OC(=O)CCCCCCCCCCCCC)C1O` (stereo not drawn) yielded a TGI of over 100 µM.

`O=c1[nH]c(=O)n(C/C=C/CBr)nc1Br` returned a TGI of 30.2 µM.

`COCOCC[C@@H]1CC=CC(NC(=O)OCc2ccccc2)C1/C=C/C(=O)CCC1OCCO1` (stereo partly drawn) displayed a TGI of over 100 µM.

`C=C1CC(COc2ccc3c(C)cc(=O)oc3c2)(c2ccccc2)OC1=O` (stereo not drawn) yielded a TGI of 23.7 µM.

In the case of `N#Cc1c(N)nc(N2CCSCC2)c(C#N)c1-c1ccc(O)cc1`, the GI50 was 21.1 µM and the TGI is over 100 µM.

Regarding `COc1ccc(C[C@H](N)C(=O)N2C[C@@H](CO)C[C@@H](n3cnc4c(N(C)C)ncnc43)C2)cc1`, the TGI was over 100 µM.

In the case of `O=C1NC(S(=O)(=O)O)=NNC12c1ccccc1-c1ccccc12`, the TGI was over 10 µM.

In turn, `CC(=O)N=C1N(/C=C2\C(=O)Oc3ccccc3C2=O)C(=O)/C(=C/c2ccccc2Cl)N1C` returned a TGI of over 100 µM.

Consider `CCCCCCN(C)Cc1ccc(OCCOc2ccc(CN(C)CCCCCC)cc2)cc1`, for which the GI50 was 1.78 µM and the TGI was determined as 4.74 µM.

The compound `Cn1c2c3c(F)c(F)ccc3nc-2cc2ccccc21` showed a TGI of 19.6 µM.

As to `COC(=O)c1ccc2c(c1)c1c(C)c3ccncc3c(C)c1n2C`, the GI50 was 0.524 µM and the TGI is over 100 µM.

As to `COC(=O)c1c(C(=O)OC)c2c3ccccc3n(C)c2c2c1c1ccccc1n2C`, the TGI is over 100 µM.

Compound `CC(=O)NC(CCCCN(Cc1ccccc1)C(=O)N(CCCl)N=O)C(=O)NCc1ccccc1` (stereo not drawn) returned a TGI of 98.3 µM.

In turn, `NNC(=O)N/N=C1\C(=O)N(c2nccs2)C(=O)C(=O)C1c1nc2ccccc2s1` (stereo not drawn) gave a TGI of over 100 µM.

On to `CCOC(=O)c1csc(NC(=O)COc2cccc(/C=C3\CSc4ccccc4C3=O)c2)n1`, for which the GI50 is 13.7 µM and the TGI turned out to be 26.8 µM.

`CC(CCCC1SCC2NC(=O)NC21)C(=O)O` (stereo not drawn) yielded a TGI of over 100 µM.

`O=C(O)c1ccc(Nc2nc3cc(C(F)(F)F)ccc3nc2-c2ccccc2)cc1`: the TGI amounted to 70.4 µM.

Take `CC[C@]12C=CCN3CC[C@@]4(c5ccc(OC)cc5N(C)[C@H]4[C@@](O)(C(=O)OC)[C@@H]1OC(=O)CCC(=O)N[C@H](Cc1c[nH]c4ccccc14)C(=O)OC)[C@@H]32`: the GI50 is 10 µM and the TGI is 40.7 µM.

Compound `CC(C)(C)NC(=O)C12C3C4C1C1C2C3C41C(=O)NC(C)(C)C` (stereo not drawn) had a TGI of over 100 µM.

Regarding `CN(C)CCC1(C2=CCCC2)CC/C(=C\c2ccccc2Cl)C1=O` (stereo not drawn), the TGI turned out to be 27.6 µM.

As to `Cc1ccc(NC(=O)CC/C(CC(=O)C(C)(C)C)=N\Nc2ccc([N+](=O)[O-])cc2[N+](=O)[O-])cc1C`, the TGI was over 100 µM.

The compound `C/C(CCn1[nH]c(=O)ccc1=O)=N\Nc1ccc([N+](=O)[O-])cc1[N+](=O)[O-]` returned a TGI of over 100 µM.

`COc1ccc2nc3n(c2c1)C(c1c(Cl)cccc1Cl)SC3` (stereo not drawn): the TGI is over 100 µM.

As for `O=C(O)CC1CC=C[C@H]2c3cc4c(cc3C(=O)NC12)OCO4` (stereo partly drawn), the TGI is over 75 µM.

The compound `Cc1cc(C)nc(NS(=O)(=O)c2ccc(NC(=O)c3ccc(Cl)c4c(Nc5ccc(S(=O)(=O)N=C(N)N)cc5)c5ccccc5nc34)cc2)n1` displayed a TGI of 73.8 µM.

On to `CC(=O)OCC(OC(C)=O)C(OC(C)=O)C(OC(C)=O)C(/C=N\Nc1nc2ccccc2c(=O)[nH]1)=N/Nc1nc2ccccc2c(=O)[nH]1` (stereo not drawn), for which the TGI is over 100 µM.

Compound `CCCCN=C1OCc2[nH][nH]c(=O)c21` yielded a TGI of over 100 µM.

With `C1CCN2CC3CCCN4CCCC(C2C1)C34` (stereo not drawn), the TGI is over 100 µM.

As to `CC(=O)C1CCC2C3CC=C4CC(SC(=N)N)CCC4(C)C3CCC12C` (stereo not drawn), the GI50 was 2.06 µM and the TGI is 7.86 µM.

Take `C[C@@H]1CC[C@@H]2[C@@H](C)C[C@H]3[C@@H]4C(C)(C)OC(=O)[C@]4(C)C(=O)[C@@]23C1=O`: the TGI was over 100 µM.

Take `NC(=O)C(Nc1ccc(Cl)cc1)c1cc2cc(Br)ccc2nc1Cl` (stereo not drawn): the TGI is over 50 µM.

The compound `O=C(/C=C/c1ccc(O)c(O)c1)NCCc1ccc(-c2ccccc2)cc1` returned a TGI of 94.2 µM.

On to `CCOC(=O)N1[C@@H]2CCC[C@@H]2C(=O)[C@@H]2CCC[C@@H]21`, for which the TGI is over 100 µM.

Turning to `O=C(Nc1ccc2c(c1)OCO2)C(=O)c1c[nH]c2cc(F)ccc12`, the GI50 was 11 µM and the TGI was determined as 90.2 µM.

Regarding `COc1ccc(N2C(=O)/C(=C\c3cccc(Oc4ccccc4)c3)SC2c2ccccc2)cc1` (stereo not drawn), the TGI is over 100 µM.
